Test results from the supplement of paper PMC8728848.
The list shows a part of the results.

Experiments:
Assay in all cases: glycan array binding signal (z-score within array); higher = stronger binding
Settings in all cases: glycan notation: IUPAC condensed, linker removed; mutation: N224Q
[1] = target: Fuc(a1-2)Gal
Outline: (§1)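 The binding signal is a Z-score computed within each array and averaged over linkers. Arrays of the same protein sequence at different concentrations or buffers were also averaged together. Data originate from 3228 arrays in the Consortium for Functional Glycomics database, kept only where the protein sequence was available.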

[2] = target: Fuc(a1-2)Gal(b1-3)GalNAc
Outline: as §1

[3] = target: Fuc(a1-2)Gal(b1-3)GalNAc(a1-3)[Fuc(a1-2)]Gal(b1-4)Glc
Outline: as §1

[4] = target: Fuc(a1-2)Gal(b1-3)GalNAc(a1-3)[Fuc(a1-2)]Gal(b1-4)GlcNAc
Outline: as §1

[5] = target: Fuc(a1-2)Gal(b1-3)GalNAc(b1-3)Gal
Outline: as §1

[6] = target: Fuc(a1-2)Gal(b1-3)GalNAc(b1-3)Gal(a1-4)Gal(b1-4)Glc
Outline: as §1

[7] = target: Fuc(a1-2)Gal(b1-3)GalNAc(b1-4)[Neu5Ac(a2-3)]Gal(b1-4)Glc
Outline: as §1

[8] = target: Fuc(a1-2)Gal(b1-3)GlcNAc
Outline: as §1

[9] = target: Fuc(a1-2)Gal(b1-3)GlcNAc(b1-2)Man(a1-3)[Fuc(a1-2)Gal(b1-3)GlcNAc(b1-2)Man(a1-6)]Man(b1-4)GlcNAc(b1-4)GlcNAc
Outline: as §1

[10] = target: Fuc(a1-2)Gal(b1-3)GlcNAc(b1-2)Man(a1-3)[Fuc(a1-2)Gal(b1-3)GlcNAc(b1-2)Man(a1-6)]Man(b1-4)GlcNAc(b1-4)[Fuc(a1-6)]GlcNAc
Outline: as §1

[11] = target: Fuc(a1-2)Gal(b1-3)GlcNAc(b1-3)Gal(b1-4)Glc
Outline: as §1

[12] = target: Fuc(a1-2)Gal(b1-3)GlcNAc(b1-3)GalNAc
Outline: as §1

[13] = target: Fuc(a1-2)Gal(b1-3)GlcNAc(b1-3)[Fuc(a1-2)Gal(b1-3)GlcNAc(b1-6)]GalNAc
Outline: as §1

[14] = target: Fuc(a1-2)Gal(b1-3)GlcNAc(b1-3)[Gal(b1-4)GlcNAc(b1-6)]Gal(b1-4)Glc
Outline: as §1

[15] = target: Fuc(a1-2)Gal(b1-3)GlcNAc(b1-3)[Neu5Ac(a2-6)Gal(b1-4)GlcNAc(b1-6)]Gal(b1-4)Glc
Outline: as §1

[16] = target: Fuc(a1-2)Gal(b1-3)GlcNAc6S
Outline: as §1

[17] = target: Fuc(a1-2)Gal(b1-3)[Fuc(a1-4)]GlcNAc
Outline: as §1

[18] = target: Fuc(a1-2)Gal(b1-3)[Fuc(a1-4)]GlcNAc(b1-2)Man(a1-3)[Fuc(a1-2)Gal(b1-3)[Fuc(a1-4)]GlcNAc(b1-2)Man(a1-3)]Man(b1-4)GlcNAc(b1-4)GlcNAc
Outline: as §1

[19] = target: Fuc(a1-2)Gal(b1-3)[Fuc(a1-4)]GlcNAc(b1-2)Man(a1-3)[Fuc(a1-2)Gal(b1-3)[Fuc(a1-4)]GlcNAc(b1-2)Man(a1-6)]Man(b1-4)GlcNAc(b1-4)[Fuc(a1-6)]GlcNAc(b1-4)[Fuc(a1-6)]GlcNAc
Outline: as §1

[20] = target: Fuc(a1-2)Gal(b1-3)[Fuc(a1-4)]GlcNAc(b1-3)[Fuc(a1-3)[Gal(b1-4)]GlcNAc(b1-6)]Gal(b1-4)Glc
Outline: as §1

[21] = target: Fuc(a1-2)Gal(b1-3)[Fuc(a1-4)]GlcNAc(b1-3)[Gal(b1-4)GlcNAc(b1-6)]Gal(b1-4)Glc
Outline: as §1

[22] = target: Fuc(a1-2)Gal(b1-4)Fuc(a1-3)]GlcNAc(b1-2)Man(a1-3)[Fuc(a1-2)Gal(b1-4)[Fuc(a1-3)]GlcNAc(b1-2)Man(a1-6)]Man(b1-4)GlcNAc(b1-4)GlcNAc
Outline: as §1

[23] = target: Fuc(a1-2)Gal(b1-4)Glc
Outline: as §1

[24] = target: Fuc(a1-2)Gal(b1-4)Glc6S
Outline: as §1

[25] = target: Fuc(a1-2)Gal(b1-4)GlcNAc
Outline: as §1

[26] = target: Fuc(a1-2)Gal(b1-4)GlcNAc(b1-2)Man
Outline: as §1

[27] = target: Fuc(a1-2)Gal(b1-4)GlcNAc(b1-2)Man(a1-3)[Fuc(a1-2)Gal(b1-4)GlcNAc(b1-2)Man(a1-6)]Man(b1-4)GlcNAc(b1-4)GlcNAc
Outline: as §1

[28] = target: Fuc(a1-2)Gal(b1-4)GlcNAc(b1-2)Man(a1-3)[Fuc(a1-2)Gal(b1-4)GlcNAc(b1-2)Man(a1-6)]Man(b1-4)GlcNAc(b1-4)[Fuc(a1-6)]GlcNAc
Outline: as §1

[29] = target: Fuc(a1-2)Gal(b1-4)GlcNAc(b1-2)[Fuc(a1-2)Gal(b1-4)GlcNAc(b1-4)]Man(a1-3)[Fuc(a1-2)Gal(b1-4)GlcNAc(b1-2)Man(a1-6)]Man(b1-4)GlcNAc(b1-4)GlcNAc
Outline: as §1

[30] = target: Fuc(a1-2)Gal(b1-4)GlcNAc(b1-3)Gal(b1-4)GlcNAc
Outline: as §1

[31] = target: Fuc(a1-2)Gal(b1-4)GlcNAc(b1-3)Gal(b1-4)GlcNAc(b1-2)Man(a1-3)[Fuc(a1-2)Gal(b1-4)GlcNAc(b1-3)Gal(b1-4)GlcNAc(b1-2)Man(a1-6)]Man(b1-4)GlcNAc(b1-4)GlcNAc
Outline: as §1

[32] = target: Fuc(a1-2)Gal(b1-4)GlcNAc(b1-3)Gal(b1-4)GlcNAc(b1-3)Gal(b1-4)GlcNAc
Outline: as §1

[33] = target: Fuc(a1-2)Gal(b1-4)GlcNAc(b1-3)GalNAc
Outline: as §1

[34] = target: Fuc(a1-2)Gal(b1-4)GlcNAc(b1-3)[Fuc(a1-2)Gal(b1-4)GlcNAc(b1-6)]GalNAc
Outline: as §1

[35] = target: Fuc(a1-2)Gal(b1-4)GlcNAc(b1-3)[Fuc(a1-3)[Gal(b1-4)]GlcNAc(b1-6)]Gal(b1-4)Glc
Outline: as §1

[36] = target: Fuc(a1-2)Gal(b1-4)GlcNAc(b1-6)GalNAc
Outline: as §1

[37] = target: Fuc(a1-2)Gal(b1-4)GlcNAc6S
Outline: as §1

[38] = target: Fuc(a1-2)Gal(b1-4)[Fuc(a1-3)]GlcNAc
Outline: as §1

[39] = target: Fuc(a1-2)Gal(b1-4)[Fuc(a1-3)]GlcNAc(b1-2)Man(a1-3)[Fuc(a1-2)Gal(b1-4)[Fuc(a1-3)]GlcNAc(b1-2)Man(a1-6)]Man(b1-4)GlcNAc(b1-4)[Fuc(a1-6)]GlcNAc
Outline: as §1

[40] = target: Fuc(a1-2)Gal(b1-4)[Fuc(a1-3)]GlcNAc(b1-2)[Fuc(a1-2)Gal(b1-4)[Fuc(a1-3)]GlcNAc(b1-4)]Man(a1-3)[Fuc(a1-2)Gal(b1-4)[Fuc(a1-3)]GlcNAc(b1-2)Man(a1-6)]Man(b1-4)GlcNAc(b1-4)GlcNAc
Outline: as §1

[41] = target: Fuc(a1-2)Gal(b1-4)[Fuc(a1-3)]GlcNAc(b1-3)Gal(b1-4)[Fuc(a1-3)]GlcNAc
Outline: as §1

[42] = target: Fuc(a1-2)Gal(b1-4)[Fuc(a1-3)]GlcNAc(b1-3)Gal(b1-4)[Fuc(a1-3)]GlcNAc(b1-3)Gal(b1-4)[Fuc(a1-3)]GlcNAc
Outline: as §1

[43] = target: Fuc(a1-2)Gal(b1-4)[Fuc(a1-3)]GlcNAc(b1-3)GalNAc
Outline: as §1

[44] = target: Fuc(a1-2)Gal(b1-4)[Fuc(a1-3)]GlcNAc(b1-3)[Neu5Ac(a2-6)Gal(b1-4)GlcNAc(b1-6)]Gal(b1-4)Glc
Outline: as §1

[45] = target: Fuc(a1-2)Gal3S(b1-4)GlcNAc
Outline: as §1

[46] = target: Fuc(a1-2)Gal6S(b1-3)GlcNAc
Outline: as §1

[47] = target: Fuc(a1-2)Gal6S(b1-3)GlcNAc6S
Outline: as §1

[48] = target: Fuc(a1-2)Gal6S(b1-4)Glc
Outline: as §1

[49] = target: Fuc(a1-2)Gal6S(b1-4)Glc6S
Outline: as §1

[50] = target: Fuc(a1-2)[Gal(a1-3)]Gal
Outline: as §1

[51] = target: Fuc(a1-2)[Gal(a1-3)]Gal(b1-3)GalNAc
Outline: as §1

[52] = target: Fuc(a1-2)[Gal(a1-3)]Gal(b1-3)GalNAc(b1-3)Gal(a1-4)Gal(b1-4)Glc
Outline: as §1

[53] = target: Fuc(a1-2)[Gal(a1-3)]Gal(b1-3)GlcNAc
Outline: as §1

[54] = target: Fuc(a1-2)[Gal(a1-3)]Gal(b1-3)GlcNAc(b1-2)Man(a1-3)[Fuc(a1-2)[Gal(a1-3)]Gal(b1-3)GlcNAc(b1-2)Man(a1-6)]Man(b1-4)GlcNAc(b1-4)GlcNAc
Outline: as §1

[55] = target: Fuc(a1-2)[Gal(a1-3)]Gal(b1-3)GlcNAc(b1-2)Man(a1-3)[Fuc(a1-2)[Gal(a1-3)]Gal(b1-3)GlcNAc(b1-2)Man(a1-6)]Man(b1-4)GlcNAc(b1-4)[Fuc(a1-6)]GlcNAc
Outline: as §1

[56] = target: Fuc(a1-2)[Gal(a1-3)]Gal(b1-3)GlcNAc(b1-3)GalNAc
Outline: as §1

[57] = target: Fuc(a1-2)[Gal(a1-3)]Gal(b1-3)GlcNAc(b1-6)GalNAc
Outline: as §1

[58] = target: Fuc(a1-2)[Gal(a1-3)]Gal(b1-4)Glc
Outline: as §1

[59] = target: Fuc(a1-2)[Gal(a1-3)]Gal(b1-4)GlcNAc
Outline: as §1

[60] = target: Fuc(a1-2)[Gal(a1-3)]Gal(b1-4)GlcNAc(b1-2)Man
Outline: as §1

B1: AAL (Aleuria aurantia) (protein)
chain: MPTEFLYTSKIAAISWAATGGRQQRVYFQDLNGKIREAQRGGDNPWTGGSSQNVIGEAKLFSPLAAVTWKSAQGIQIRVYCVNKDNILSEFVYDGSKWITGQLGSVGVKVGSNSKLAALQWGGSESAPPNIRVYYQKSNGSGSSIHEYVWSGKWTAGASFGSTVPGTGIGATAIGPGRLRIYYQATDNKIREHCWDSNSWYVGGFSASASAGVSIAAISWGSTPQIRVYWQKGREELYEAAYGGSWNTPGQIKDASRPTPSLPDTFIAANSSGNIDISVFFQASGVSLQQWQWISGKGWSIGAVVPTGTPAGW
glycan array binding signal (z-score) [1]: 4.67
glycan array binding signal (z-score) [2]: -0.139
glycan array binding signal (z-score) [3]: -0.239
glycan array binding signal (z-score) [4]: -0.306
glycan array binding signal (z-score) [5]: -0.308
glycan array binding signal (z-score) [6]: -0.169
glycan array binding signal (z-score) [7]: -0.318
glycan array binding signal (z-score) [8]: 0.012
glycan array binding signal (z-score) [9]: -0.259
glycan array binding signal (z-score) [10]: -0.196
glycan array binding signal (z-score) [11]: 0.122
glycan array binding signal (z-score) [12]: -0.263
glycan array binding signal (z-score) [13]: -0.285
glycan array binding signal (z-score) [14]: -0.262
glycan array binding signal (z-score) [15]: -0.314
glycan array binding signal (z-score) [16]: -0.139
glycan array binding signal (z-score) [17]: 0.023
glycan array binding signal (z-score) [18]: -0.241
glycan array binding signal (z-score) [19]: 0.006
glycan array binding signal (z-score) [20]: -0.198
glycan array binding signal (z-score) [21]: -0.298
glycan array binding signal (z-score) [22]: -0.123
glycan array binding signal (z-score) [23]: 0.937
glycan array binding signal (z-score) [24]: 2.29
glycan array binding signal (z-score) [25]: 2.73
glycan array binding signal (z-score) [26]: -0.281
glycan array binding signal (z-score) [27]: 1.43
glycan array binding signal (z-score) [28]: 0.577
glycan array binding signal (z-score) [29]: 0.404
glycan array binding signal (z-score) [30]: 1.39
glycan array binding signal (z-score) [31]: 6.34
glycan array binding signal (z-score) [32]: 2.65
glycan array binding signal (z-score) [33]: -0.108
glycan array binding signal (z-score) [34]: 0.22
glycan array binding signal (z-score) [35]: -0.197
glycan array binding signal (z-score) [36]: 2.68
glycan array binding signal (z-score) [37]: 1.08
glycan array binding signal (z-score) [38]: 3.69
glycan array binding signal (z-score) [39]: 1.89
glycan array binding signal (z-score) [40]: 0.004
glycan array binding signal (z-score) [41]: 3.57
glycan array binding signal (z-score) [42]: 3.95
glycan array binding signal (z-score) [43]: -0.294
glycan array binding signal (z-score) [44]: -0.308
glycan array binding signal (z-score) [45]: 1.2
glycan array binding signal (z-score) [46]: -0.079
glycan array binding signal (z-score) [47]: -0.305
glycan array binding signal (z-score) [48]: 3.32
glycan array binding signal (z-score) [49]: 1.59
glycan array binding signal (z-score) [50]: 2.38
glycan array binding signal (z-score) [51]: -0.302
glycan array binding signal (z-score) [52]: -0.306
glycan array binding signal (z-score) [53]: -0.311
glycan array binding signal (z-score) [54]: -0.289
glycan array binding signal (z-score) [55]: -0.235
glycan array binding signal (z-score) [56]: -0.287
glycan array binding signal (z-score) [57]: -0.305
glycan array binding signal (z-score) [58]: -0.295
glycan array binding signal (z-score) [59]: -0.307
glycan array binding signal (z-score) [60]: -0.285
